In PMC4336329 (PLoS ONE, 2015):
The whole screen tested about 310,000 compounds, of which about 14,000 (4.5%) showed an effect of 50% or more. Effects have a minus sign here. The list shows a part of the results.

target: human ether-à-go-go-related gene (hERG) potassium channel (human, UniProt Q12809); experiment: primary screen, population patch clamp on CHO cells stably expressing hERG
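Note: peak tail current of the secondary pulse compared with the same well before compound.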

human ether-à-go-go-related gene (hERG) potassium channel, sequence (Q12809 whole entry, looked up): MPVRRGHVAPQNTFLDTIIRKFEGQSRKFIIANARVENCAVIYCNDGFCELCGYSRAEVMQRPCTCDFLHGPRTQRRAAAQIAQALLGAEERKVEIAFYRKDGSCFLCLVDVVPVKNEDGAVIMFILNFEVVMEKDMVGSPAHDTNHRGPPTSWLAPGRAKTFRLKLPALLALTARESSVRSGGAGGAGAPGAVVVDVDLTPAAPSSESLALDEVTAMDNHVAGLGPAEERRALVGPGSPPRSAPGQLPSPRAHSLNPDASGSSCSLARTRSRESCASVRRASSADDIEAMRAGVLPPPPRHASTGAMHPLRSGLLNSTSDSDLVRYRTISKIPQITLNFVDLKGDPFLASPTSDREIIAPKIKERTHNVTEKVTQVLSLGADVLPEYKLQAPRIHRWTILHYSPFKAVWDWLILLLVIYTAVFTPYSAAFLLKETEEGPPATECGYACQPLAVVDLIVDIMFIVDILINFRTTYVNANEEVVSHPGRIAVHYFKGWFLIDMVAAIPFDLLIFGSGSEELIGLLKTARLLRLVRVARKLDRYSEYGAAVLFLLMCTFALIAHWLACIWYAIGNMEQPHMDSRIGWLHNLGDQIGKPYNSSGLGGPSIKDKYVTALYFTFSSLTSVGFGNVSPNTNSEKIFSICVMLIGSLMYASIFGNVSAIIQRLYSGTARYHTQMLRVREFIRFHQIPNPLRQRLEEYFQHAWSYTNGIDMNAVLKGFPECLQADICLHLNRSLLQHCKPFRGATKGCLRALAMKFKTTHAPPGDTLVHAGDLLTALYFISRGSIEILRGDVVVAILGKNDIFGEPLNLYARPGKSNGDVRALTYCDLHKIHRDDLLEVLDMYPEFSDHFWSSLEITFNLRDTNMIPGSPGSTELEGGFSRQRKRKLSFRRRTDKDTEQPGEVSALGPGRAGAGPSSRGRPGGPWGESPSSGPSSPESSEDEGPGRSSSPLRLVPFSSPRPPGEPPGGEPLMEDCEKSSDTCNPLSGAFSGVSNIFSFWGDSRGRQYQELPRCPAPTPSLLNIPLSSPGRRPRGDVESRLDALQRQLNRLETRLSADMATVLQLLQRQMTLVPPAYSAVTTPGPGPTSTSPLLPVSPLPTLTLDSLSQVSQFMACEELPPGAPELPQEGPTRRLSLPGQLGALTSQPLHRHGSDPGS

Structure (SMILES) | hERG current change (%, negative = inhibition) at 10uM
O=C(COC(=O)c1ccc(S(=O)(=O)N2CCCC2)cc1)NCc1ccc(Cl)cc1 | -6.29%
COc1ccc(CNC(=O)CN2C(=O)COc3ccc(S(=O)(=O)NC4CCCC4)cc32)cc1 | -0.778%
CCOC(=O)c1oc2c(c1C)C(=O)CCC2 | 15.6%
COc1ccc(CC(=O)NNC2=Nc3cccc4cccc2c34)cc1 | 17.8%
CCCOc1ccc(C2C(C(=O)c3cc4ccccc4o3)=C(O)C(=O)N2c2cc(C)on2)cc1 (stereo not shown) | 20%
COc1ccc(CN(CC(=O)NCCc2ccccc2)C(=O)CCC(=O)Nc2ccccn2)cc1 | -27.1%
Cc1cc(-c2ccccc2)nc(N/N=C/c2ccc([N+](=O)[O-])cc2)n1 | -15.9%
O=C(Nc1ccc(F)c(Cl)c1)C1CC2CCC1C2 (stereo not shown) | 3.18%
CSc1nc2c(c(=O)[nH]c(=O)n2C)n1CCCc1ccccc1 | 3.11%
CSCc1c(C(=O)Nc2ccc3c(c2)OCO3)oc2ccccc12 | 18.5%
Clc1ccc(-n2nnnc2-c2cnc(-c3ccccn3)nc2-c2cccs2)cc1 | -26.1%
CCOC(=O)c1c(NC(=O)C(C)N2CCN(C(=O)c3ccco3)CC2)sc2c1CCCC2 (stereo not shown) | -56.1%
COc1ccc(S(=O)(=O)N2CCOC2CNC(=O)C(=O)NCc2ccc3c(c2)OCO3)cc1 (stereo not shown) | -25.6%
O=C(COc1ccc(CO)cc1)Nc1ccc(F)cc1 | 0.156%
COc1ccc(-c2csc(NC3OC(=O)c4ccccc43)n2)cc1 (stereo not shown) | 4.05%
CCN1C(=O)[C@H]2[C@@H](c3ccc(C)cc3)N3C(=O)N(c4cccc(F)c4)C(=O)[C@@]3(CC)[C@H]2C1=O | -4.65%
Cc1cc(C)nc(SCC(=O)Nc2ccc(S(=O)(=O)NCCO)cc2)n1 | -7.43%
O=C(Nc1ccc2c(c1)OCCO2)c1cccnc1 | 8.72%
CC(NC(=O)C(Cc1ccccc1)NC(=O)c1ccccc1)C(=O)O (stereo not shown) | 24%
Cc1ccc(/C=C/C(=O)Nc2nnc(SCc3ccc(C#N)cc3)s2)o1 | -11%
C#Cc1ccc([C@H]2C=C(C(=O)OCC=C)O[C@@H](OCc3ccc(CO)cc3)C2)cc1 | -2.79%
Cc1nn(CCCC(=O)NC2CCC(C)CC2)c(=O)c2nn(-c3ccccc3)c(C)c12 (stereo not shown) | -5.97%

Structure (SMILES) | hERG current change (%, negative = inhibition) at 10uM
O=C(O)c1ccccc1NCc1ccsc1 | 9.52%
CC(=O)Nc1sc(C)c(C)c1C(=O)OCC(=O)N(CC(C)C)c1c(N)n(Cc2ccccc2)c(=O)[nH]c1=O | -1.37%
CC(=O)Nc1ccc(S(=O)(=O)Nc2nc3cc4c(cc3nc2Cl)OCCO4)cc1 | 8.04%
OCCC1CN(Cc2cccc(-n3cccn3)c2)CCN1Cc1ccccc1 (stereo not shown) | -44.8%
O=C(c1cccc(Cl)c1)C1CCCN(Cc2ccc(N3CCNC3=O)cc2)C1 (stereo not shown) | -43.7%
Cc1ccc([N+](=O)[O-])cc1N=C(c1cccc(Br)c1)N1CCOCC1 | 0.726%
COc1ccccc1CC(=O)N1CCCC1 | 8.49%
Cc1cc(/C=C2/NC(=O)N(Cc3ccccc3F)C2=O)c(C)n1-c1ccccn1 | 9.38%
CCCn1c(SCC(=O)Nc2sc(C)c(C)c2C(=O)OCC)nc2c1c(=O)n(C)c(=O)n2C | 0.59%
CCCc1nc2ccccc2n1CC(O)COc1ccc(NC(C)=O)cc1 (stereo not shown) | 16.1%
COc1ccc(NC(=S)NC(=O)c2cccnc2)cc1 | 16.6%
CC(=O)OC(C(=O)NC1CCCCC1)c1ccccc1F (stereo not shown) | 16.4%
COCCn1c(=O)[nH]c2cc(C(=O)Nc3cccc(C(C)=O)c3)ccc2c1=O | -19.8%
CC1(c2ccccc2)NC(=O)N(CC(=O)NNC(=O)c2cccc(Cl)c2)C1=O (stereo not shown) | -3.79%
Cl.Cn1nnnc1SCCNCc1ccccc1OCc1ccc(Cl)cc1 | -53.4%
O=C(CCCCC(=O)Nc1ccc(F)cc1F)Nc1ccc(F)cc1F | 4.85%
CCC(=O)Nc1ccc(-c2ccc(N3CCC(C)CC3)nn2)cc1 | 6.62%
Nc1ccccc1S(N)(=O)=O | 14.9%
CCc1ccc(N2C(=O)Nc3ccc(Br)cc3C2(O)C(=O)NCCN(C)C)cc1 (stereo not shown) | 6.98%
CC(C)n1c(/N=C/c2c[nH]c3ccccc23)nc2ccccc21 | -1.7%
CC(C)CNS(=O)(=O)c1ccc(S(=O)(=O)N2CCN(CCC#N)CC2)cc1 | 6.93%
NC(=S)Cc1nc(-c2ccc(Cl)cc2)cs1 | -1.32%

Structure (SMILES) | hERG current change (%, negative = inhibition) at 10uM
COCCCNC(=S)N1CCN(C(c2ccccc2)c2ccccc2)CC1 | 5.04%
CCOC(=O)c1ccc(NC(=O)CCCN2C(=O)NC3(CCCC3)C2=O)cc1 | -3.62%
O=C(/C=C/c1ccccc1)NCC(=O)N/N=C/c1ccccc1[N+](=O)[O-] | -14.9%
Cc1cccc(/C=N/NC(=O)Cn2nc(C)cc2C)n1 | 15.5%
Cc1nn(Cc2ccccc2)c(C)c1C(=O)N1CCN(S(=O)(=O)/C=C/c2ccccc2)CC1 | -24.8%
COc1cccc(-c2nnc3n2N=C(c2cccc(Br)c2)CS3)c1 | 6.32%
Cl.Oc1ccc(C2=CCNCC2)cc1O | 10.1%
CCN(CCCNC(=O)CCn1c(=O)[nH]c2ccccc2c1=O)c1ccccc1 | 0.927%
CSCC[C@H](Nc1ncnc2sc(C)c(C)c12)C(=O)O | 7.25%
CCn1cc(CN2CCCC(CO)(Cc3cccc(Cl)c3)C2)cn1 (stereo not shown) | -10.8%
CCOc1ccc(NC(=O)Nc2cc(C(=O)O)ccc2N2CC3CC(C2)c2cccc(=O)n2C3)cc1 (stereo not shown) | 12.4%
COC(=O)c1[nH]c2c(c1C)C(=O)CC(c1ccccc1)C2 (stereo not shown) | 4.41%
Cn1cc([N+](=O)[O-])c(C(=O)Nc2cnn(Cc3ccc(F)cc3)c2)n1 | 2.14%
Cn1nnnc1SCC(=O)NCc1cccs1 | 17.5%
CCNC(=S)N(Cc1ccc2c(c1)OCO2)C1CC(=O)N(c2ccc(F)cc2)C1=O (stereo not shown) | -14.4%
COc1ccc(C2=CC(=O)OC3(CCCCC3)O2)cc1 | -32.3%
O=C(CC12CC3CC(CC(C3)C1)C2)NCc1ccncc1 | -10.1%
COc1ccc(CNC(=O)c2cc(-c3ccco3)on2)cc1 | 4.79%
O=C(CCl)NN=C(c1ccccc1)c1ccccc1 | 0.333%
Cc1ccc2cc3cc(C(=O)N4CCCCC4C)oc3nc2c1 (stereo not shown) | -12.1%
O=C(CNC(=O)N1CC(=O)Nc2ccccc21)NCc1cccc(Cl)c1 | 12.8%
O=C(c1ccc(Cl)cc1)N1CCN(c2cc(=O)[nH]nc2-c2ccccc2)CC1 | -58.3%

Structure (SMILES) | hERG current change (%, negative = inhibition) at 10uM
CCC(=O)Nc1ccc(C(=O)COC(=O)c2nc3nccc(C)n3n2)cc1 | 2.6%
O=C(OCC(=O)c1ccc(Cl)s1)c1cnccn1 | 7.24%
N#CCSc1nc2ccccc2c(=O)n1C1CCCCC1 | -2.73%
Cc1sc2nc(-c3cccnc3)[nH]c(=O)c2c1-c1ccccc1 | -4.06%
CCc1cccc(CC)c1NC(=O)COC(=O)c1ccccc1-c1nc2ccccc2s1 | 5.72%
COc1ccc(Cl)cc1C(=O)N1CCC2(CC1)CC(=O)c1ccccc1O2 | -80.5%
CCOCCCNC(=S)N1CCCN(c2nc3cc(C)ccc3cc2C#N)CC1 | -30.9%
Cn1c(=O)c2c(nc(NCc3ccco3)n2CCc2ccccc2)n(C)c1=O | -25.8%
O=C(NC1CCCCCC1)C(=S)NCc1ccccc1 | 5.94%
C#C[C@]1(O)CCC2C3CCC4=Cc5oncc5CC4(C)C3CCC21C (stereo partly shown) | -3.2%
CN(Cc1nc(-c2cccc(Cl)c2)no1)C1CCOCC1 | -22.7%
O=C(Cc1ccc(-n2c(=O)c3ccccc3n(Cc3cccc([N+](=O)[O-])c3)c2=O)cc1)NCC1CCCO1 (stereo not shown) | -11.1%
O=S(=O)(Nc1cccc(-c2cn3c(n2)SCC3)c1)c1ccccc1 | 3.05%
CN(Cc1ccccc1)C(=O)c1cccc(N2C(=O)C3CC=CCC3C2=O)c1 (stereo not shown) | 16.3%
C=CCN1C(=O)C(=O)N(Cc2nc3ccccc3s2)C1=O | 13%
O=C(Nc1ccc(F)c(Cl)c1)C1CCCCC1 | -24.1%
Cc1nnc(NC(=O)c2cc(-c3ccncc3)nc3c(C)cccc23)s1 | 24.5%
CCOC(=O)C(NCc1ccc(F)cc1)(NC(=O)c1ccccc1)C(F)(F)F (stereo not shown) | -6.41%
Cc1cc(C)nc(N/C(=N/S(=O)(=O)Cc2ccccc2)Nc2ccccc2)n1 | 8.02%
CC(=O)Nc1cccc(C(=O)OCc2csc(CC(=O)Nc3ccccc3C)n2)c1 | -14%
O=C(COC(=O)C1CC1)Nc1ccc(OC(F)F)cc1 | -13.9%
COc1ccc(C/C(C)=N/NC(=S)Nc2ccc(C(C)C)cc2)cc1 | 15.4%
